Source: patent US20260207767A1 (ANAVEON, published 2026)

T1: His-tagged recombinant CD25 (UniProt P01589 22-213, limits assumed)
T1 construct: also called IL-2R alpha chain
T1 sequence (looked up): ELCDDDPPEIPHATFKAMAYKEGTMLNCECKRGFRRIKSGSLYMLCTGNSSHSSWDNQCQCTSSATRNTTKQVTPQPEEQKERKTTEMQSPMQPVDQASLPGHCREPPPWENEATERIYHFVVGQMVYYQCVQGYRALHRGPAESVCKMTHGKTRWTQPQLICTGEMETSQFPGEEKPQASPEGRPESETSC

T2: high affinity trimeric IL-2R on CD4+CD25+FoxP3+ Treg cells of murine splenocytes (mouse, UniProt P01590 22-268; P16297 27-539; P34902 23-369)
T2 sequence (looked up) 1: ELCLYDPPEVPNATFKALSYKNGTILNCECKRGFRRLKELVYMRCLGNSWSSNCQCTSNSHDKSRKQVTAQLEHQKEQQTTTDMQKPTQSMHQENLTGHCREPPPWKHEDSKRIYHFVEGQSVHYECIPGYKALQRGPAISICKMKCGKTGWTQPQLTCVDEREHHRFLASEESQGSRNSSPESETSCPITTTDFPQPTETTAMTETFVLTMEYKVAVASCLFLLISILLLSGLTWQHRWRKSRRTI
T2 sequence (looked up) 2: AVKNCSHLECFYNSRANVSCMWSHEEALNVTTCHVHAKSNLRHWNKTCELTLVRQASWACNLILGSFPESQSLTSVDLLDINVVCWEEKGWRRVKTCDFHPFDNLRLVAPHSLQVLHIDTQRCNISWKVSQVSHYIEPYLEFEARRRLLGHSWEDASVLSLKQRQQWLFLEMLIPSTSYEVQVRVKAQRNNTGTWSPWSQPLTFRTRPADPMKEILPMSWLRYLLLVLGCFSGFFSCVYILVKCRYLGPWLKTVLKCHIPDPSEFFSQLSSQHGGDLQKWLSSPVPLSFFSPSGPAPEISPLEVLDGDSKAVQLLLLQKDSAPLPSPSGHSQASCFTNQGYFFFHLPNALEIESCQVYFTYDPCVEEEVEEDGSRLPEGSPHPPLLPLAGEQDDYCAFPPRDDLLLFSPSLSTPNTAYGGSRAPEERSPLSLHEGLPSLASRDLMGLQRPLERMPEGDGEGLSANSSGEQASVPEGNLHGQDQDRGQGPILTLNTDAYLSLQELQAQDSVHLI
T2 sequence (looked up) 3: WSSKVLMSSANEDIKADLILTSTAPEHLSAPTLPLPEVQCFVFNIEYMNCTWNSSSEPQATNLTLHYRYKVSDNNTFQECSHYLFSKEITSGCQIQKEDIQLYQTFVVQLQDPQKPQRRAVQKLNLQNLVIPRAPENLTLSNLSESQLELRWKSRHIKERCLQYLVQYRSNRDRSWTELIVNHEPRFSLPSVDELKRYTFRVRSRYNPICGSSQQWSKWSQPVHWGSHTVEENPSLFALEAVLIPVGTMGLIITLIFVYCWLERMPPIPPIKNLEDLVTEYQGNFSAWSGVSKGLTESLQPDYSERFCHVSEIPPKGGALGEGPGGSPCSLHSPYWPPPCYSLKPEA

T3: trimeric IL-2 receptor (CD25/CD122/CD132) on HEK-Blue IL-2 reporter cells (UniProt P01589 22-272; P14784 27-551; P31785 23-369, limits assumed)
T3 sequence (looked up) 1: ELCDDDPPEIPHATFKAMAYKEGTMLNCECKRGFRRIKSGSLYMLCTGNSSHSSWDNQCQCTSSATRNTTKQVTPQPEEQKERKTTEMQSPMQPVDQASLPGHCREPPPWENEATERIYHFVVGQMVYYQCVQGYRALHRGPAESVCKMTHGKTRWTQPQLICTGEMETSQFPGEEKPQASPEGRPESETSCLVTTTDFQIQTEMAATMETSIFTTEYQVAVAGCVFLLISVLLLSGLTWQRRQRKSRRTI
T3 sequence (looked up) 2: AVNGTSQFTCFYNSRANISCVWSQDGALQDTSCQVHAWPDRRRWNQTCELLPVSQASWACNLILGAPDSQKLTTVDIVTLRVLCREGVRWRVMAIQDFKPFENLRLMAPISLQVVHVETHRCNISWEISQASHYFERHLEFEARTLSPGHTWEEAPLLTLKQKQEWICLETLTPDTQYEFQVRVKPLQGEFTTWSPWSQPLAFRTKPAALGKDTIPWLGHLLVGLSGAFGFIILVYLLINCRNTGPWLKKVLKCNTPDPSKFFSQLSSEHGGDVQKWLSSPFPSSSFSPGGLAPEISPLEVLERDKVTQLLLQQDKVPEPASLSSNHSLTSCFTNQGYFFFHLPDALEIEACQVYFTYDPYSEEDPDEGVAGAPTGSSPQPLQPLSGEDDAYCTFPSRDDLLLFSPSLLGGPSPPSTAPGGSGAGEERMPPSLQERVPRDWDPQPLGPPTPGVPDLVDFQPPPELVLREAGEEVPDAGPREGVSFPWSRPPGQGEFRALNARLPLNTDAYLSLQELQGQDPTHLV
T3 sequence (looked up) 3: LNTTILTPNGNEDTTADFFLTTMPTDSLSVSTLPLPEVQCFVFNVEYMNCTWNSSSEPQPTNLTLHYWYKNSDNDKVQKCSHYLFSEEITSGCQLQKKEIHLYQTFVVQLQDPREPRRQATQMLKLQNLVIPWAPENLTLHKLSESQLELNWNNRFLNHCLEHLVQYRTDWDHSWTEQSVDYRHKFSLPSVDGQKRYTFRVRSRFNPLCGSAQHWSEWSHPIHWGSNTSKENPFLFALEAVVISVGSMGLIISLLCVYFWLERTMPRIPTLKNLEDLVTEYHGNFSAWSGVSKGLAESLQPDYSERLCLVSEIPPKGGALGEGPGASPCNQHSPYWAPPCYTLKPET

B1: PGO345 (other)
heavy: EVQLVQSGAEVKKPGESLKISCKGSGYAFTNYLIEWVRQMPGKGLEWMGVINPGSGGTNYNEKFKGQVTISADKSISTAYLQWSSLKASDTAMYYCARWRGEGYYAYFDVWGQGTTVTVSSASTKGPSVFPLAPSSKSTSGGTAALGCLVKDYFPEPVTVSWNSGALTSGVHTFPAVLQSSGLYSLSSVVTVPSSSLGTQTYICNVNHKPSNTKVDKRV[not shown - human IgG1 Fc with changes]
light: AIRLTQSPSSFSASTGDRVTITCKASQSVDYGGGGSGNFHLRPRDLISNINVIVLELKGSETTFMCEYADETATIVEFLNRWITFSQSIISTLTPTSSSTKKTQLQLEHLLLDLQMILNGINNYKNPKLTRMLTFKFYMPKKATELKHLQCLEEELKPLEEVLNLAQSKGGGGSGGDSYMNWYQQKPGKAPKLLIYAASNLESGVPSRFSGSGSGTDFTLTISSLQSEDFATYYCQQSNEDPYTFGGGTKVEIKRTVAAPSVFIFPPSDEQLKSGTASVVCLLNNFYPREAKVQWKVDNALQSGNSQESVTEQDSKDSTYSLSSTLTLSKADYEKHKVYACEVTHQGLSSPVTKSFNRGEC
notes: Antibody A IgG with IL-2CP in CDR-L1; also called PGQ345; PG035
B2: DRV470 (other)
heavy: EVQLVQSGAEVKKPGESLKISCKGSGYAFTNYLIEWVRQMPGKGLEWMGVINPGSGGTNYNEKFKGQVTISADKSISTAYLQWSSLKASDTAMYYCARWRGEGYYAYFDVWGQGTTVTVSSASTKGPSVFPLAPSSKSTSGGTAALGCLVKDYFPEPVTVSWNSGALTSGVHTFPAVLQSSGLYSLSSVVTVPSSSLGTQTYICNVNHKPSNTKVDKRV[not shown - human IgG1 Fc with changes]
light: AIRLTQSPSSFSASTGDRVTITCKASQSVDYGGGGSGGGGSGGGNFHLRPRDLISNINVIVLELKGSETTFMCEYADETATIVEFLNRWITFSQSIISTLTPTSSSTKKTQLQLEHLLLDLQMILNGINNYKNPKLTRMLTFKFYMPKKATELKHLQCLEEELKPLEEVLNLAQSKGGGGSGGGGSGGGGDSYMNWYQQKPGKAPKLLIYAASNLESGVPSRFSGSGSGTDFTLTISSLQSEDFATYYCQQSNEDPYTFGGGTKVEIKRTVAAPSVFIFPPSDEQLKSGTASVVCLLNNFYPREAKVQWKVDNALQSGNSQESVTEQDSKDSTYSLSSTLTLSKADYEKHKVYACEVTHQGLSSPVTKSFNRGEC
notes: Antibody A IgG with IL-2CP in CDR-L1
B3: XUB802 (other)
heavy: EVQLVQSGAEVKKPGESLKISCKGSGYAFTNYLIEWVRQMPGKGLEWMGVINPGSGGTNYNEKFKGQVTISADKSISTAYLQWSSLKASDTAMYYCARWRGEGYYAYFDVWGQGTTVTVSSASTKGPSVFPLAPSSKSTSGGTAALGCLVKDYFPEPVTVSWNSGALTSGVHTFPAVLQSSGLYSLSSVVTVPSSSLGTQTYICNVNHKPSNTKVDKRV[not shown - human IgG1 Fc with changes]
light: AIRLTQSPSSFSASTGDRVTITCKASQSVDYGGGGSGGGGSGGGGSGGGGNFHLRPRDLISNINVIVLELKGSETTFMCEYADETATIVEFLNRWITFSQSIISTLTPTSSSTKKTQLQLEHLLLDLQMILNGINNYKNPKLTRMLTFKFYMPKKATELKHLQCLEEELKPLEEVLNLAQSKGGGGSGGGGSGGGGSGGGGSDSYMNWYQQKPGKAPKLLIYAASNLESGVPSRFSGSGSGTDFTLTISSLQSEDFATYYCQQSNEDPYTFGGGTKVEIKRTVAAPSVFIFPPSDEQLKSGTASVVCLLNNFYPREAKVQWKVDNALQSGNSQESVTEQDSKDSTYSLSSTLTLSKADYEKHKVYACEVTHQGLSSPVTKSFNRGEC
notes: as for B2

target: T1, His-tagged recombinant CD25; experiment: SPR, CD25 captured

B1: no binding (tested: 500 nM).
B2: no binding (tested: 500 nM).
B3: no binding (tested: 500 nM).

target: anti-IL-2 antibody clone 5344; experiment: ELISA on clone 5344

First: B1
Second: B2
The EC50 of the first is 1.6-fold higher: 0.16 nM for the first, 0.1 nM for the second. The second is the more potent here.

Work on B3 yielded an EC50 of 0.15 nM.

target: IL-2R on NK cells and CD8+ T cells of murine splenocytes (C57BL/6) (mouse); experiment: cell-based or functional assay

Going from B1 to B2, the “EC50 CD8 cells (nM), pSTAT5” value rises from 6.6 nM to 7.9 nM.

B3 was tested, and the “EC50 CD8 cells (nM), pSTAT5” value was 17.1 nM.

Going from B1 to B2, the “EC50 NK cells (nM), pSTAT5” value rises from 2.3 nM to 2.4 nM.

B3 was tested, and the “EC50 NK cells (nM), pSTAT5” value was 5.8 nM.

target: T2, high affinity trimeric IL-2R on …; experiment: cell-based or functional assay

Compared with B1, B2 is higher in “EC50 Treg cells (nM), pSTAT5” value: 7.6 nM for the first, 10.3 nM for the second.

With B3 the “EC50 Treg cells (nM), pSTAT5” value was 12.1 nM.

target: T3, trimeric IL-2 receptor …; experiment: cell-based or functional assay

B1 and B2 are within 1.5-fold of each other in “EC50, HEK Blue IL-2 reporter assay (SEAP)” value: 0.0032 nM for the first, 0.00361 nM for the second.

With B3 the “EC50, HEK Blue IL-2 reporter assay (SEAP)” value was 0.00332 nM.
